Measurements published in US20100210602A1, “PhoU (PerF), A P[…] INVOLVED IN [sequence] FORMATION AND TOLERANCE TO MULTIPLE ANTIBIOTICS AND [sequence] AS A DRUG TARGET FOR [sequence] BACTERIA” (priority 2006, published 2010).
Like-named read-outs stand apart in the source and are kept apart here.

Legend:
W3110 = type: cell-based; settings: ampicillin 100 ug/ml, Fe3+ 250 uM
W3110ΔphoU = type: cell-based; settings: ampicillin 100 ug/ml

SMILES: CC1(C)S[C@@H]2[C@H](NC(=O)[C@H](N)c3ccccc3)C(=O)N2[C@H]1C(=O)O [Ampicillin, ampicillin]
- CFU after ampicillin exposure (W3110; Pi 0.01 mM): 5 × 10^8 CFU
- CFU after ampicillin exposure (W3110; Pi 2 mM): 5 × 10^8 CFU
- CFU after ampicillin exposure (W3110ΔphoU; MOPS, N/A (no Pi, no Fe3+)): 1 × 10^8 CFU
- CFU after ampicillin exposure (W3110ΔphoU; Pi 0.01 mM): 1 × 10^7 CFU
